In PubChem BioAssay AID504466 (National Center for Advancing Translational Sciences (NCATS), 2011):
Among all 330,000 compounds or so, about 4,200 (1.3%) were called active. Inconclusive results, whose numbers are uncertain, are shown with a selection of clear calls. The call rests on the fitted dose curve; in most records, active means well fitted activation curve with a large enough effect; inconclusive means small, poorly fitted or top-dose-only effect; inactive means no such curve, though single readings can be large or run the other way. Potencies of inconclusive entries are doubtful fits and often do not repeat.
Potency means the concentration at half of the fitted maximal effect; tags describe the fitted curve by direction and shape.

Assay: qHTS screen for small molecules that induce genotoxicity in human embryonic kidney (HEK293T) cells expressing luciferase-tagged ELG1; further: nearly all actives have a fitted effect of over 60% in size; on activity change, positive = activation: % of control where 0% means no effect
Conditions: HEK293T ELG1-luciferase reporter, luminescence, 16 h; series mostly up to 46 µM
Procedure, shortened: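 Quantitative HTS format in 1536-well plates. HEK293T ELG1-luciferase reporter cells receive test compound and are incubated 16 hr at 37 °C, 5% CO2; ONE-Glo added, 30 min room temperature, then luminescence read.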
In the case of `Cc1ccc(NC(=O)N2CCC(C(=O)Nc3ccc(C)cc3C)CC2)cc1`, the Potency was inconclusive: 23.1 µM [activator, single point].
For `COc1ccc(-c2nc3ccccc3s2)cc1NC(C)=O`, the Potency was active: 16.4 µM.
With `O=C(Nc1cccnc1)c1cn(-c2ccccc2)nc1-c1cccs1` the Potency was “inactive”.
For `Cc1cc(C(=O)Nc2sc3c(c2C#N)CCCC3)no1`, the Potency was inconclusive: 2.59 µM [activator, full curve, poor fit].
In the case of `Nc1c(C(=O)CSc2n[nH]c(-c3ccccc3)n2)c(=O)[nH]c(=O)n1C1CC1`, the Potency was “inactive”.
With `Cn1c(O)c(N=NC(=O)c2ccco2)c2ccccc21` the Potency was inconclusive: 2.31 µM [activator, partial curve].
In the case of `Brc1ccccc1-c1nnc(SCc2nc3ccccc3s2)o1`, the Potency was inconclusive: 14.6 µM [activator, partial curve].
In the case of `O=C(/C=C/c1ccco1)OCC(=O)N1CCCCC1`, the Potency was inconclusive: 14.6 µM [activator, partial curve, poor fit].
In the case of `O=C(O)CCCNS(=O)(=O)c1ccc2c(c1)OCCCO2`, the Potency was “inactive”.
In the case of `FCCCOc1ccc(-c2nccc(-c3ccccn3)n2)cc1`, the Potency was inconclusive: 18.3 µM [activator, partial curve, poor fit].
With `O=C(/C=C/c1ccnc2ccccc12)c1cccs1` the Potency was inconclusive: 0.651 µM [activator, full curve, poor fit].
In the case of `CCOC(=O)c1cnc(SCc2cccc(C)c2)nc1N`, the Potency was active: 16.4 µM.
With `O=C(Nc1ccc(N2CCOCC2)cc1)c1cccc2c(Br)cccc12` the Potency was inconclusive: 29.1 µM [activator, single point].
With `CCCCN=C(C)c1c(O)c2ccccc2oc1=O` the Potency was inconclusive: 7.31 µM [activator, partial curve].
In the case of `N/C(=N\OC(=O)c1ccc2ccccc2c1)c1cccc([N+](=O)[O-])c1`, the Potency was inconclusive: 16.4 µM [activator, partial curve, poor fit].
In the case of `Cc1cccc(NC(=O)N(C)Cc2cccs2)c1`, the Potency was inconclusive: 18.4 µM [activator, partial curve, poor fit].
In the case of `CC(=O)Nc1ccc(C(=O)OCc2ccccc2Br)cc1`, the Potency was “inactive”.
With `CCN(CC(=O)NCc1ccc(Cl)cc1)C(=O)Cc1ccccc1[N+](=O)[O-]` the Potency was inconclusive: 9.2 µM [activator, partial curve].
For `CCOc1cccc(/C=N/NC(=O)c2cc(-c3cccn3C)n[nH]2)c1O`, the Potency was inconclusive: 25.9 µM [activator, partial curve, poor fit].
In the case of `CCOC(=O)c1cnc(SCC(=O)c2ccccc2)nc1N`, the Potency was active: 20.6 µM.
For `Cc1ccc2cc3c(N)c(C(=O)N4CCOCC4)sc3nc2c1`, the Potency was active: 1.16 µM.
With `COc1ccc(NC(=O)c2nnn(CC(=O)Nc3ccc4c(c3)OCO4)c2N)cc1OC` the activity change, positive = activation was inactive: -0.229% [at 9.26 µM].
With `O=C(CSc1nc2c(c(=O)n1-c1ccccc1)SCC2)N1CCN(c2ccccc2)CC1` the Potency was “inactive”.
With `CC(=O)Cn1ncc(N2CCCCC2)c(Cl)c1=O` the Potency was inconclusive: 20.6 µM [activator, partial curve, poor fit].
With `O=C(NCCc1ccccc1)c1n[nH]c2ccccc12` the Potency was inconclusive: 7.3 µM [activator, partial curve].
For `O=C(Nc1nc2ccc(Br)cc2s1)c1ccco1`, the Potency was inconclusive: 0.82 µM [activator, full curve].
For `COc1ccc(OC)c(C(=O)CSc2nc3c(c(=O)n(C)c(=O)n3C)n2C(C)C)c1`, the Potency was inconclusive: 11.6 µM [activator, partial curve, poor fit].
For `C/C(=N\NC(=O)C1CC1)c1ccc(Cl)c(Cl)c1`, the Potency was inconclusive: 20.6 µM [activator, single point].
With `O=C(Nc1ncc2c(n1)CC(c1ccccc1)CC2=O)c1ccco1` (stereo unspecified) the Potency was “inactive”.
In the case of `C=CCn1c(C)cc(C(=O)CSc2nc(N)cc(N)n2)c1C`, the Potency was “inactive”.
With `O=C(CCl)Oc1ccc2occ(C(=O)c3cccs3)c2c1` the Potency was active: 11.6 µM.
For `Clc1ccc(-c2cc(CN3CCOCC3)no2)cc1`, the Potency was inconclusive: 16.4 µM [activator, partial curve].
For `COc1cccc(N=c2oc3cc(O)ccc3cc2C(=O)NCC2CCCO2)c1` (stereo unspecified), the Potency was “inactive”.
For `COc1ccc(-c2cc(=O)c3cc(OC)ccc3[nH]2)cc1`, the Potency was active: 9.2 µM.
For `O=C(Nc1cc2c(cc1C(=O)O)OCCCO2)c1ccc(C(F)(F)F)cc1`, the Potency was active: 18.3 µM.
With `CN1CCN(C(=O)/C(=C\c2cccc([N+](=O)[O-])c2)NC(=O)c2cccs2)CC1` the Potency was “inactive”.
For `Cc1ccc(C(=O)c2ccc([N+](=O)[O-])cc2)cc1C`, the Potency was inconclusive: 10 µM [activator, partial curve, poor fit].
With `CCCN(CCC)c1ncnc2c1cnn2-c1ccc(OC)cc1` the Potency was active: 1.16 µM.
For `CC(=O)c1c(C)[nH]c(C(=O)OCC(=O)Nc2ccc([N+](=O)[O-])cc2Cl)c1C`, the Potency was inconclusive: 29.1 µM [activator, single point].
For `Cc1ccc(-c2noc(C3CCCN(C(=O)C4CCCCC4)C3)n2)o1` (stereo unspecified), the Potency was inconclusive: 18.4 µM [activator, partial curve, poor fit].
For `O=C(Nc1cc2c(cc1Br)OCCCO2)c1ccccc1`, the Potency was inconclusive: 18.4 µM [activator, partial curve].
In the case of `CCc1ccc(Nc2cc(C)nc3ncnn23)cc1`, the Potency was inconclusive: 20.6 µM [activator, partial curve, poor fit].
With `CCCCc1ccc(-c2ccc(Br)cc2)nc1` the Potency was inconclusive: 2.59 µM [activator, partial curve].
For `CC1(C)CCC[C@@]2(C)CC=C(C(=O)O)[C@@H]3C[C@]312`, the Potency was inconclusive: 32.6 µM [activator, partial curve, poor fit].
In the case of `O=C(Nc1ccc(N2CCCC2)c(Cl)c1)c1cccs1`, the Potency was active: 2.31 µM.
For `O=C(NCCCc1ccccc1)c1ccc([N+](=O)[O-])cc1Cl`, the Potency was inconclusive: 4.61 µM [activator, single point].
With `COc1ccc(NC(=O)CCn2c(=S)[nH]c3ccccc3c2=O)cc1` the Potency was inconclusive: 29.1 µM [activator, single point].
With `O=C(NC1CCCCCC1)c1cccc(N2CCCC2=O)c1` the Potency was inconclusive: 5.8 µM [activator, partial curve].
For `COc1cccc(NC(=O)c2ccc3nsnc3c2)c1`, the Potency was inconclusive: 4.11 µM [activator, partial curve, poor fit].
For `c1ccc(CCc2cn(C[C@H]3CC[C@@H]([C@@H]4CC[C@H](Cn5cc(CCc6ccccc6)nn5)O4)O3)nn2)cc1`, the Potency was “inactive”.
For `CCCCCCc1c(C)c2ccc(OCC(=O)N[C@@H](Cc3ccccc3)C(=O)O)cc2oc1=O`, the Potency was “inactive”.
For `O=C(CNC(=O)[C@@H]1Cc2ccccc2CN1)Nc1ccc2c(c1)OCCO2`, the Potency was inconclusive: 14.6 µM [activator, partial curve, poor fit].
For `C=CCN1C(=O)C(CC(=O)NCC)SC1=Nc1ccc(S(N)(=O)=O)cc1` (stereo unspecified), the Potency was “inactive”.
For `Cn1nc(C(=O)NCc2ccccc2)c2ccccc2c1=O`, the Potency was inconclusive: 18.4 µM [activator, partial curve, poor fit].
With `CC#CCCCC(=O)Nc1ccccc1C(=O)O` the Potency was inconclusive: 18.4 µM [activator, single point].
With `O=C1c2ccccc2C(=O)C1(CO)c1ccc(OC(F)F)cc1` the Potency was inconclusive: 2.06 µM [activator, partial curve].
For `O=C(Nc1ccc2c3c(cccc13)CC2)c1ccco1`, the Potency was inconclusive: 7.31 µM [activator, single point].
In the case of `Cn1/c(=N/N=C/c2ccc(N3CCOCC3)cc2)sc2ccccc21`, the Potency was “inactive”.
With `COc1ccccc1-c1cc(C(=O)N/N=C/c2ccc(C)s2)c2ccccc2n1` the Potency was “inactive”.
With `Cc1c(Cl)cccc1NC(=O)Cn1cc(C(F)(F)F)cc(Cl)c1=O` the Potency was inconclusive: 29.1 µM [activator, single point].
In the case of `CCOc1ccc(CN(C(=O)c2cc3ccccc3oc2=O)C2CCS(=O)(=O)C2)cc1` (stereo unspecified), the Potency was inconclusive: 20.6 µM [activator, single point].
For `COc1ccc(-n2nc(C(=O)NCC(=O)N(C)Cc3ccccc3)c3ccccc3c2=O)c(OC)c1`, the Potency was inconclusive: 29.1 µM [activator, single point].
With `CCOC(=O)c1ccc(N2Cc3ccccc3C2=NC(=O)c2cccs2)cc1` the Potency was inconclusive: 18.4 µM [activator, partial curve].
With `COc1ccc(C(C(=O)NC2CCCC2)N(C(=O)c2snc(-c3ccc(F)cc3)c2N)c2ccccc2)cc1` (stereo unspecified) the Potency was “inactive”.
With `COc1ccc(CNC(=O)CSCc2ccccc2Cl)cc1` the Potency was inconclusive: 18.4 µM [activator, partial curve, poor fit].
With `CCn1c(O)c(C2=c3ccccc3=NC2=O)c2cc(Br)ccc21` the Potency was inconclusive: 32.6 µM [activator, partial curve, poor fit].
For `Cc1cc(OCc2cc(C(=O)NCc3cc(C(C)C)no3)no2)cc(C)c1Cl`, the Potency was active: 3.66 µM.
In the case of `CC(C)CCNC(=O)CCCCn1c(=O)[nH]c2ccsc2c1=O`, the Potency was “inactive”.
With `O=C(N=C1SCC(=O)N1c1ccccc1Cl)c1ccccc1` the Potency was inconclusive: 18.3 µM [activator, partial curve].
In the case of `CCOc1cccc(C(=O)NC2=NCCS2)c1`, the Potency was inconclusive: 1.64 µM [activator, partial curve, poor fit].
With `c1ccn2cc(CSC3=NCCS3)nc2c1` the Potency was inconclusive: 20.6 µM [activator, partial curve].
